# Measured values taken from ChEMBL document CHEMBL5606458, “ASAP - ZIKV NS2B-NS3 protease fluorescence single point” (2024).
# Screen size: about 2,700 compounds; about 160 (5.9%) showed an effect of 50% or more. The list shows a part of the results.
# Target: Nonstructural protein 3 (Zika virus) (UniProt A0A024AXB9)
# [1] = PRVABC59, Concentration 15.0 uM, Number of replicates 1.0
# [2] = PRVABC59, Concentration 50.0 uM, Number of replicates 1.0
# UniProt A0A024AXB9, sequence (A0A024AXB9 as listed by the source): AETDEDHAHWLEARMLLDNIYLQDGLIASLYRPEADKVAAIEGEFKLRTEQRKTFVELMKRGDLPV
smiles,measurement,setting,value
O=C(c1cc(Cl)ccc1NS(=O)(=O)c1ccc(Oc2ccccc2Cl)cc1)N1CCn2c(nnc2C(F)(F)F)C1,inhibition,[1],6.88%
COC(=O)c1cncc(C(=O)Nc2ccncc2C)c1,inhibition,"PRVABC59, Concentration 49.5 uM, Number of replicates 2.0, Standard deviation 3.334315410247663 %",-7.09%
same,inhibition,"PRVABC59, Concentration 99.01 uM, Number of replicates 2.0, Standard deviation 3.5682000737521973 %",-6.79%
same,inhibition,"PRVABC59, Concentration 198.0 uM, Number of replicates 2.0, Standard deviation 3.2821258106735933 %",-6.5%
O=C(N[C@@H]1CCCN(Cc2ccccc2)C1)c1cc(Cl)ccc1NS(=O)(=O)c1ccc(Oc2ccccc2Cl)cc1,inhibition,[1],10.8%
O=C(Nc1ccccc1)c1cc(Cl)ccc1NS(=O)(=O)c1ccc(Oc2ccccc2Cl)cc1,inhibition,[1],54.2%
O=C(c1cc(Cl)ccc1NS(=O)(=O)c1ccc(Oc2ccccc2Cl)cc1)N1CCN(c2nsc3ccccc23)CC1,inhibition,[1],13%
CC(C)Nc1nc2ccc(C(=O)Nc3cc(-c4nccn4C)n[nH]3)cc2[nH]1,inhibition,"PRVABC59, Concentration 49.5 uM, Number of replicates 2.0, Standard deviation 1.5841940362005018 %",0.48%
same,inhibition,"PRVABC59, Concentration 99.01 uM, Number of replicates 2.0, Standard deviation 1.722618743079317 %",2.37%
same,inhibition,"PRVABC59, Concentration 198.0 uM, Number of replicates 2.0, Standard deviation 0.5383180937944834 %",5.77%
O=c1c2ccccc2ncn1C1CN(Cc2c[nH]c3ccccc23)C1,inhibition,"PRVABC59, Concentration 99.01 uM, Number of replicates 2.0, Standard deviation 5.715692935887529 %",1.21%
same,inhibition,"PRVABC59, Concentration 198.0 uM, Number of replicates 2.0, Standard deviation 4.94445112673456 %",8.06%
COC(=O)[C@@H](C)NC(=O)Cc1cc(OC)nc(N2CCNCC2)n1,inhibition,"PRVABC59, Concentration 49.5 uM, Number of replicates 2.0, Standard deviation 2.535411528598933 %",0.703%
same,inhibition,"PRVABC59, Concentration 99.01 uM, Number of replicates 2.0, Standard deviation 2.9676017926474083 %",2.6%
same,inhibition,"PRVABC59, Concentration 198.0 uM, Number of replicates 2.0, Standard deviation 1.32465504962272 %",4.63%
CNC(=O)c1cc(Cl)ccc1NS(=O)(=O)c1cccc(CN(C)C)c1,inhibition,"PRVABC59, Concentration 49.5 uM, Number of replicates 2.0, Standard deviation 0.5541621056740927 %",-3.61%
same,inhibition,"PRVABC59, Concentration 99.01 uM, Number of replicates 2.0, Standard deviation 0.1639655706358715 %",-4.04%
same,inhibition,"PRVABC59, Concentration 198.0 uM, Number of replicates 2.0, Standard deviation 0.3735923625988694 %",-6.78%
CN(Cc1ccc(Cl)cc1)C(=O)c1cc(Cl)ccc1NS(=O)(=O)c1ccc(Oc2ccccc2Cl)cc1,inhibition,[1],31.9%
O=Cc1ccc(N2CCC(C(=O)NC3C4CC5CC(C4)CC3C5)CC2)cc1 (stereo unspecified),inhibition,[2],-2.57%
COC(=O)c1ccc(F)c(Cn2ncc(C3CCNCC3)c2C)c1,inhibition,"PRVABC59, Concentration 49.5 uM, Number of replicates 2.0, Standard deviation 3.4042226177050456 %",1.17%
same,inhibition,"PRVABC59, Concentration 99.01 uM, Number of replicates 2.0, Standard deviation 3.3683349133728075 %",3.29%
same,inhibition,"PRVABC59, Concentration 198.0 uM, Number of replicates 2.0, Standard deviation 3.1119928074014256 %",8.25%
O=C(Nc1cnn(-c2ccccc2)c(=O)c1Cl)c1cc(Cl)ccc1NS(=O)(=O)c1ccc(Oc2ccccc2Cl)cc1,inhibition,[1],22%
O=Cc1ccc(N2CCC(C(=O)Nc3ccccc3Oc3ccccc3)CC2)cc1,inhibition,[2],24.4%
O=Cc1ccc(N2CCC(C(=O)Nc3ccccc3Sc3ccccc3)CC2)cc1,inhibition,[2],23.7%
CC(C)CCN(CCC(C)C)C(=O)C1CCN(c2ccc(C=O)cc2)CC1,inhibition,[2],25.1%
Cc1cc(CO)c2cccc(Cc3cccc(C(=O)Nc4cccc(C(N)=O)c4)c3)c2n1,inhibition,"PRVABC59, Concentration 49.95 uM, Number of replicates 2.0, Standard deviation 0.1992514179713741 %",-3.36%
same,inhibition,"PRVABC59, Concentration 99.9 uM, Number of replicates 2.0, Standard deviation 0.4299637092619174 %",-0.56%
Cc1ccc(NC(=O)c2cc(Cl)ccc2NS(=O)(=O)c2ccc(Oc3ccccc3Cl)cc2)cc1Br,inhibition,[1],43.3%
CC(C)(C)OC(=O)NC1CN(C(=O)c2cc(Cl)ccc2NS(=O)(=O)c2ccc(Oc3ccccc3Cl)cc2)C1,inhibition,[1],0.402%
CCOC(=O)[C@H]1CCCN(C(=O)C2CCN(c3ccc(C=O)cc3)CC2)C1,inhibition,[2],23.3%
Cc1ccc([N+](=O)[O-])c(NC(=O)C2CCN(c3ccc(C=O)cc3)CC2)c1,inhibition,[2],22.9%
C[C@@H]1CN(CCNC(=O)c2cc(Cl)ccc2NS(=O)(=O)c2ccc(Oc3ccccc3Cl)cc2)C[C@H](C)O1,inhibition,[1],23.9%
N#Cc1cccc(NC(=O)c2cccc(OCc3c(Cl)cccc3Cl)c2)c1,inhibition,"PRVABC59, Concentration 49.5 uM, Number of replicates 2.0, Standard deviation 1.7651619405536074 %",6.21%
same,inhibition,"PRVABC59, Concentration 99.01 uM, Number of replicates 2.0, Standard deviation 1.834624667346594 %",10%
same,inhibition,"PRVABC59, Concentration 198.0 uM, Number of replicates 2.0, Standard deviation 2.6293560952864428 %",8.42%
Cc1cnccc1NC(=O)c1cncc(S(C)(=O)=O)c1,inhibition,"PRVABC59, Concentration 49.5 uM, Number of replicates 2.0, Standard deviation 1.0745033884669215 %",2.26%
same,inhibition,"PRVABC59, Concentration 99.01 uM, Number of replicates 2.0, Standard deviation 1.8668367871670457 %",2%
same,inhibition,"PRVABC59, Concentration 198.0 uM, Number of replicates 2.0, Standard deviation 1.5508062721876872 %",3.36%
O=Cc1ccc(N2CCC(C(=O)N3CCN(c4ccc(Br)cn4)CC3)CC2)cc1,inhibition,[2],0.176%
CC(C)CC(=O)N1CCC(NC(=O)c2cc(Cl)ccc2NS(=O)(=O)c2ccc(Oc3ccccc3Cl)cc2)CC1,inhibition,[1],7.39%
O=C1NCCN(S(=O)(=O)c2ccc(Oc3ccccc3Cl)cc2)c2cc(F)c(F)cc21,inhibition,"PRVABC59, Concentration 49.5 uM, Number of replicates 2.0, Standard deviation 2.191742501212131 %",-2.08%
same,inhibition,"PRVABC59, Concentration 99.01 uM, Number of replicates 2.0, Standard deviation 1.8575848321541237 %",1.42%
same,inhibition,"PRVABC59, Concentration 198.0 uM, Number of replicates 2.0, Standard deviation 0.35283723134337663 %",5.56%
O=C(OCc1ccccc1)N1CCN(C(=O)c2cc(Cl)ccc2NS(=O)(=O)c2ccc(Oc3ccccc3Cl)cc2)CC1,inhibition,[1],19.4%
CC(C)CN1CC[C@H](CNC(=O)C2CCN(c3ccc(C=O)cc3)CC2)C1,inhibition,[2],26.2%
CN(Cc1nc2ccccc2n1C)C(=O)C1CCN(c2ccc(C=O)cc2)CC1,inhibition,[2],21.6%
O=Cc1ccc(N2CCC(C(=O)NCCOc3ccccc3Cl)CC2)cc1,inhibition,[2],24.9%
O=C1c2c(O)ccc([N+](=O)[O-])c2C(=O)c2c([N+](=O)[O-])ccc(O)c21,inhibition,"PRVABC59, Concentration 100.0 uM, Number of replicates 2.0, Standard deviation 11.038302783376022 %",30.6%
O=Cc1ccc(N2CCC(C(=O)Nc3c(Br)cncc3[N+](=O)[O-])CC2)cc1,inhibition,[2],22.5%
CN(C(=O)C1CCN(c2ccc(C=O)cc2)CC1)[C@H]1CS(=O)(=O)C[C@@H]1O,inhibition,[2],20.9%
COc1cc2c(cc1OC)C(=O)[C@@H](CC1CCN(C(=O)c3cc(Cl)ccc3NS(=O)(=O)c3ccc(Oc4ccccc4Cl)cc3)CC1)C2,inhibition,[1],0.527%
Cc1cc(Br)cc(NC(=O)C2CCN(c3ccc(C=O)cc3)CC2)c1,inhibition,[2],28.7%
O=C(Nc1ccc(OCc2ccccc2)cc1)c1cc(Cl)ccc1NS(=O)(=O)c1ccc(Oc2ccccc2Cl)cc1,inhibition,[1],29.8%
CCN(Cc1cc(Br)ccc1F)C(=O)C1CCN(c2ccc(C=O)cc2)CC1,inhibition,[2],26.9%
O=Cc1ccc(N2CCC(C(=O)NC3CCN(CC(=O)NC4CC4)CC3)CC2)cc1,inhibition,[2],27.4%
c1ccc2c([C@H]3CCN(Cc4cocn4)C3)c[nH]c2c1,inhibition,"PRVABC59, Concentration 49.5 uM, Number of replicates 2.0, Standard deviation 2.680092134349069 %",5.41%
same,inhibition,"PRVABC59, Concentration 99.01 uM, Number of replicates 2.0, Standard deviation 6.827048554046504 %",4.89%
same,inhibition,"PRVABC59, Concentration 198.0 uM, Number of replicates 2.0, Standard deviation 1.5027961226993516 %",3.45%
Cc1cc(CO)c2cccc(NC(=O)[C@@H]3C[C@@H](O)CN3)c2n1,inhibition,"PRVABC59, Concentration 49.95 uM, Number of replicates 2.0, Standard deviation 2.1728568355691875 %",17%
same,inhibition,"PRVABC59, Concentration 99.9 uM, Number of replicates 2.0, Standard deviation 5.153634365263829 %",23.7%
O=C(NCc1cccc(-c2ccccc2)c1)c1cc(Cl)ccc1NS(=O)(=O)c1ccc(Oc2ccccc2Cl)cc1,inhibition,[1],54.4%
CC(C)(CO)NC(=O)c1cc(Cl)cc(NC(=O)c2cc(S(N)(=O)=O)c[nH]2)c1,inhibition,"PRVABC59, Concentration 49.5 uM, Number of replicates 2.0, Standard deviation 1.280968155267238 %",-4.22%
same,inhibition,"PRVABC59, Concentration 99.01 uM, Number of replicates 2.0, Standard deviation 2.813227285299221 %",-4.14%
same,inhibition,"PRVABC59, Concentration 198.0 uM, Number of replicates 2.0, Standard deviation 3.346453070416073 %",-2.91%
